# This is one part of the list.
# Assays:
# Assay in all cases: glycan array binding signal (z-score within array); higher = stronger binding
# Details in all cases: glycan notation: IUPAC condensed, linker removed; mutation: E227G
# [1] = target: Neu5Ac(a2-3)Gal(b1-3)GlcNAc(b1-6)GalNAc
# How it was run: (§1)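 From the Consortium for Functional Glycomics database, 3228 arrays were curated, keeping only those whose protein sequence was available. Binding is given as a within-array Z-score averaged across arrays sharing a protein sequence and across linkers. Negative Z-scores can be read as non-binding.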
# [2] = target: Neu5Ac(a2-3)Gal(b1-3)GlcNAc6S
# How it was run: as §1
# [3] = target: Neu5Ac(a2-3)Gal(b1-3)[Fuc(a1-4)]GlcNAc
# How it was run: as §1
# [4] = target: Neu5Ac(a2-3)Gal(b1-3)[Fuc(a1-4)]GlcNAc(b1-3)Gal(b1-3)[Fuc(a1-4)]GlcNAc
# How it was run: as §1
# [5] = target: Neu5Ac(a2-3)Gal(b1-3)[Fuc(a1-4)]GlcNAc(b1-3)Gal(b1-4)[Fuc(a1-3)]GlcNAc
# How it was run: as §1
# [6] = target: Neu5Ac(a2-3)Gal(b1-3)[GlcNAc(b1-6)]GalNAc
# How it was run: as §1
# [7] = target: Neu5Ac(a2-3)Gal(b1-3)[Neu5Ac(a2-6)]GalNAc
# How it was run: as §1
# [8] = target: Neu5Ac(a2-3)Gal(b1-3)[Neu5Ac(a2-6)]GlcNAc(b1-3)[Fuc(a1-3)[Gal(b1-4)]GlcNAc(b1-6)]Gal(b1-4)Glc
# How it was run: as §1
# [9] = target: Neu5Ac(a2-3)Gal(b1-3)]Neu5Ac(a2-3)Gal(b1-4)]GlcNAc
# How it was run: as §1
# [10] = target: Neu5Ac(a2-3)Gal(b1-4)Glc
# How it was run: as §1
# [11] = target: Neu5Ac(a2-3)Gal(b1-4)GlcNAc
# How it was run: as §1
# [12] = target: Neu5Ac(a2-3)Gal(b1-4)GlcNAc(b1-2)Man
# How it was run: as §1
# [13] = target: Neu5Ac(a2-3)Gal(b1-4)GlcNAc(b1-2)Man(a1-3)[GlcNAc(b1-4)][Neu5Ac(a2-3)Gal(b1-4)GlcNAc(b1-2)Man(a1-6)]Man(b1-4)GlcNAc(b1-4)GlcNAc
# How it was run: as §1
# [14] = target: Neu5Ac(a2-3)Gal(b1-4)GlcNAc(b1-2)Man(a1-3)[Neu5Ac(a2-3)Gal(b1-4)GlcNAc(b1-2)Man(a1-6)]Man(b1-4)GlcNAc(b1-4)GlcNAc
# How it was run: as §1
# [15] = target: Neu5Ac(a2-3)Gal(b1-4)GlcNAc(b1-2)Man(a1-3)[Neu5Ac(a2-3)Gal(b1-4)GlcNAc(b1-2)Man(a1-6)]Man(b1-4)GlcNAc(b1-4)[Fuc(a1-6)]GlcNAc
# How it was run: as §1
# [16] = target: Neu5Ac(a2-3)Gal(b1-4)GlcNAc(b1-2)Man(a1-3)[Neu5Ac(a2-6)Gal(b1-4)GlcNAc(b1-2)Man(a1-6)]Man(b1-4)GlcNAc(b1-4)GlcNAc
# How it was run: as §1
# [17] = target: Neu5Ac(a2-3)Gal(b1-4)GlcNAc(b1-2)[Neu5Ac(a2-3)Gal(b1-4)GlcNAc(b1-4)]Man(a1-3)[GlcNAc(b1-4)][Neu5Ac(a2-3)Gal(b1-4)GlcNAc(b1-2)[Neu5Ac(a2-3)Gal(b1-4)GlcNAc(b1-6)]Man(a1-6)]Man(b1-4)GlcNAc(b1-4)GlcNAc
# How it was run: as §1
# [18] = target: Neu5Ac(a2-3)Gal(b1-4)GlcNAc(b1-2)[Neu5Ac(a2-3)Gal(b1-4)GlcNAc(b1-4)]Man(a1-3)[GlcNAc(b1-4)][Neu5Ac(a2-3)Gal(b1-4)GlcNAc(b1-4)Man(a1-6)]Man(b1-4)GlcNAc(b1-4)GlcNAc
# How it was run: as §1
# [19] = target: Neu5Ac(a2-3)Gal(b1-4)GlcNAc(b1-2)[Neu5Ac(a2-3)Gal(b1-4)GlcNAc(b1-6)]Man(a1-6)[Neu5Ac(a2-3)Gal(b1-4)GlcNAc(b1-2)Man(a1-3)][GlcNAc(b1-4)]Man(b1-4)GlcNAc(b1-4)GlcNAc
# How it was run: as §1
# [20] = target: Neu5Ac(a2-3)Gal(b1-4)GlcNAc(b1-3)Gal
# How it was run: as §1
# [21] = target: Neu5Ac(a2-3)Gal(b1-4)GlcNAc(b1-3)Gal(b1-3)GlcNAc
# How it was run: as §1
# [22] = target: Neu5Ac(a2-3)Gal(b1-4)GlcNAc(b1-3)Gal(b1-4)GlcNAc
# How it was run: as §1
# [23] = target: Neu5Ac(a2-3)Gal(b1-4)GlcNAc(b1-3)Gal(b1-4)GlcNAc(b1-2)Man(a1-3)[Neu5Ac(a2-3)Gal(b1-4)GlcNAc(b1-3)Gal(b1-4)GlcNAc(b1-2)Man(a1-6)]Man(b1-4)GlcNAc(b1-4)GlcNAc
# How it was run: as §1
# [24] = target: Neu5Ac(a2-3)Gal(b1-4)GlcNAc(b1-3)Gal(b1-4)GlcNAc(b1-3)Gal(b1-4)GlcNAc
# How it was run: as §1
# [25] = target: Neu5Ac(a2-3)Gal(b1-4)GlcNAc(b1-3)Gal(b1-4)GlcNAc(b1-3)Gal(b1-4)GlcNAc(b1-2)Man(a1-3)[Neu5Ac(a2-3)Gal(b1-4)GlcNAc(b1-3)Gal(b1-4)GlcNAc(b1-3)Gal(b1-4)GlcNAc(b1-2)Man(a1-6)]GalNAc
# How it was run: as §1
# [26] = target: Neu5Ac(a2-3)Gal(b1-4)GlcNAc(b1-3)Gal(b1-4)GlcNAc(b1-3)GalNAc
# How it was run: as §1
# [27] = target: Neu5Ac(a2-3)Gal(b1-4)GlcNAc(b1-3)Gal(b1-4)GlcNAc(b1-3)[Neu5Ac(a2-3)Gal(b1-4)GlcNAc(b1-3)Gal(b1-4)GlcNAc(b1-6)]GalNAc
# How it was run: as §1
# [28] = target: Neu5Ac(a2-3)Gal(b1-4)GlcNAc(b1-3)Gal(b1-4)GlcNAc(b1-6)[Gal(b1-3)]GalNAc
# How it was run: as §1
# [29] = target: Neu5Ac(a2-3)Gal(b1-4)GlcNAc(b1-3)Gal(b1-4)[Fuc(a1-3)]GlcNAc
# How it was run: as §1
# [30] = target: Neu5Ac(a2-3)Gal(b1-4)GlcNAc(b1-3)GalNAc
# How it was run: as §1
binder,measurement,setting,value
"Epa1-NP-mutant-E227G (Candida glabrata), Q6VBJ0 (protein) MILNPALFLNKCVCIYTTLILLLLTNGGYATSSNDISLASKDPTTFPLGCSPDITTPKKGLSMELYSYDFRKKGSYPCWDAAYLDPNYPRTGYKSHRLLAKVDGVTGNINFYYHATKGCTPQLGHLPASYNYPKPLTMTNFTMLLYGYFRPKVTGFHTFTISADDLLFVNFGAGNAFDCCRRDSSADHFGNYQAYAIWGSKTAKDELTVHLDAGVYYPIRLFYNNRGYDGALSFTFKTESNENTVSDFSEYFFSLDDTEEGCPGLISYDSSCASVKTSKIIGIDYHTETPNENLVPITKTIYHLGIPCTGTTTTPLCGSGFYDPLANKCVTINTSSTSSVTKTTSHTTSKEVSFHSSISSQKTLIPKSIPSPYGPIKSQSIPTEMETSSEISSSEYAFSDVISTPSHSPYTKKHSSLNSSSYTSTVIHSLTSYSISQGIFSTSLSEQNITSKSSTDKFSTATSMSNNITQSSIIISQFSTNNENYTTTSMHTSSDKISTETLNNSISTTTSILFSNSSTILKNNTTIISSDKDTHYHPVNPTIVCSTNKTEIICASITQPSISNSNNHWSSSVLKFNSTTVRSTLPSSAGSNETSINVPFSSSTESNTSTSSTSTSNSKMVRSTLPSSAGSNETSISVPFSSSTESNTSTSSTSTSNSKMVRSTLPSSAGSNETSINVPFSSSTESNTSTSSTSTSNSKTVRSTPFSSAGIIMTSLSQRNNKSASSYASSNSKCYNTADSCRKVHSTPSYLLTSSYTSEGVDYDCSLVSTKLKINDTNCVNNKHTTKSCLKTSVTTTIPTLEIKTARKSSSNTIGLHSYPTSSPNKSISSAPIIGYISSFKTIKTASPSYQTSDLTTITTITSLNNPGSTAVENTHESNDKSRKTSSNDISSKHSVIKETKDAVESSNKSHQTNTLKCSSIIIASSSHNSYESLGGTTLTLTLSKVYSPQNNDTLPFLEISEVNPSRTVLPESSKMMQYLTSTEERNKTARNTIATNIVSISTFHFEGEGNAIRMGYTQLLLMLIGIIVMNIGT",glycan array binding signal (z-score),[1],-0.128
same,glycan array binding signal (z-score),[2],-0.166
same,glycan array binding signal (z-score),[3],-0.081
same,glycan array binding signal (z-score),[4],-0.152
same,glycan array binding signal (z-score),[5],-0.088
same,glycan array binding signal (z-score),[6],-0.135
same,glycan array binding signal (z-score),[7],-0.173
same,glycan array binding signal (z-score),[8],0
same,glycan array binding signal (z-score),[9],-0.127
same,glycan array binding signal (z-score),[10],-0.12
same,glycan array binding signal (z-score),[11],-0.195
same,glycan array binding signal (z-score),[12],-0.135
same,glycan array binding signal (z-score),[13],-0.025
same,glycan array binding signal (z-score),[14],-0.236
same,glycan array binding signal (z-score),[15],0.006
same,glycan array binding signal (z-score),[16],-0.195
same,glycan array binding signal (z-score),[17],0.141
same,glycan array binding signal (z-score),[18],-0.201
same,glycan array binding signal (z-score),[19],-0.237
same,glycan array binding signal (z-score),[20],-0.186
same,glycan array binding signal (z-score),[21],-0.035
same,glycan array binding signal (z-score),[22],-0.176
same,glycan array binding signal (z-score),[23],-0.191
same,glycan array binding signal (z-score),[24],-0.15
same,glycan array binding signal (z-score),[25],0.001
same,glycan array binding signal (z-score),[26],-0.313
same,glycan array binding signal (z-score),[27],-0.096
same,glycan array binding signal (z-score),[28],-0.148
same,glycan array binding signal (z-score),[29],-0.535
same,glycan array binding signal (z-score),[30],-0.113

# Reference: the supplement of paper PMC8728848
